The list shows a part of the results.
Experiments:
Assay in all cases: glycan array binding signal (z-score within array); higher = stronger binding
Settings in all cases: glycan notation: IUPAC condensed, linker removed
Neu5Ac(a2-3)Gal(b1-4)Glc = target: Neu5Ac(a2-3)Gal(b1-4)Glc
Method in brief: (§1)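 The binding signal is a Z-score computed within each array and averaged over linkers. Arrays of the same protein sequence at different concentrations or buffers were also averaged together. Data originate from 3228 arrays in the Consortium for Functional Glycomics database, kept only where the protein sequence was available.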

[1] = target: Neu5Ac(a2-3)Gal(b1-4)GlcNAc
Method in brief: as §1

[2] = target: Neu5Ac(a2-3)Gal(b1-4)GlcNAc(b1-2)Man
Method in brief: as §1

[3] = target: Neu5Ac(a2-3)Gal(b1-4)GlcNAc(b1-2)Man(a1-3)[GlcNAc(b1-4)][Neu5Ac(a2-3)Gal(b1-4)GlcNAc(b1-2)Man(a1-6)]Man(b1-4)GlcNAc(b1-4)GlcNAc
Method in brief: as §1

[4] = target: Neu5Ac(a2-3)Gal(b1-4)GlcNAc(b1-2)Man(a1-3)[Neu5Ac(a2-3)Gal(b1-4)GlcNAc(b1-2)Man(a1-6)]Man(b1-4)GlcNAc(b1-4)GlcNAc
Method in brief: as §1

[5] = target: Neu5Ac(a2-3)Gal(b1-4)GlcNAc(b1-2)Man(a1-3)[Neu5Ac(a2-3)Gal(b1-4)GlcNAc(b1-2)Man(a1-6)]Man(b1-4)GlcNAc(b1-4)[Fuc(a1-6)]GlcNAc
Method in brief: as §1

[6] = target: Neu5Ac(a2-3)Gal(b1-4)GlcNAc(b1-2)Man(a1-3)[Neu5Ac(a2-6)Gal(b1-4)GlcNAc(b1-2)Man(a1-6)]Man(b1-4)GlcNAc(b1-4)GlcNAc
Method in brief: as §1

[7] = target: Neu5Ac(a2-3)Gal(b1-4)GlcNAc(b1-2)[Neu5Ac(a2-3)Gal(b1-4)GlcNAc(b1-4)]Man(a1-3)[GlcNAc(b1-4)][Neu5Ac(a2-3)Gal(b1-4)GlcNAc(b1-2)[Neu5Ac(a2-3)Gal(b1-4)GlcNAc(b1-6)]Man(a1-6)]Man(b1-4)GlcNAc(b1-4)GlcNAc
Method in brief: as §1

[8] = target: Neu5Ac(a2-3)Gal(b1-4)GlcNAc(b1-2)[Neu5Ac(a2-3)Gal(b1-4)GlcNAc(b1-4)]Man(a1-3)[GlcNAc(b1-4)][Neu5Ac(a2-3)Gal(b1-4)GlcNAc(b1-4)Man(a1-6)]Man(b1-4)GlcNAc(b1-4)GlcNAc
Method in brief: as §1

[9] = target: Neu5Ac(a2-3)Gal(b1-4)GlcNAc(b1-2)[Neu5Ac(a2-3)Gal(b1-4)GlcNAc(b1-6)]Man(a1-6)[Neu5Ac(a2-3)Gal(b1-4)GlcNAc(b1-2)Man(a1-3)]Man(b1-4)GlcNAc(b1-4)GlcNAc
Method in brief: as §1

[10] = target: Neu5Ac(a2-3)Gal(b1-4)GlcNAc(b1-2)[Neu5Ac(a2-3)Gal(b1-4)GlcNAc(b1-6)]Man(a1-6)[Neu5Ac(a2-3)Gal(b1-4)GlcNAc(b1-2)Man(a1-3)][GlcNAc(b1-4)]Man(b1-4)GlcNAc(b1-4)GlcNAc
Method in brief: as §1

[11] = target: Neu5Ac(a2-3)Gal(b1-4)GlcNAc(b1-3)Gal
Method in brief: as §1

[12] = target: Neu5Ac(a2-3)Gal(b1-4)GlcNAc(b1-3)Gal(b1-3)GlcNAc
Method in brief: as §1

[13] = target: Neu5Ac(a2-3)Gal(b1-4)GlcNAc(b1-3)Gal(b1-4)GlcNAc
Method in brief: as §1

[14] = target: Neu5Ac(a2-3)Gal(b1-4)GlcNAc(b1-3)Gal(b1-4)GlcNAc(b1-2)Man(a1-3)[Neu5Ac(a2-3)Gal(b1-4)GlcNAc(b1-3)Gal(b1-4)GlcNAc(b1-2)Man(a1-6)]Man(b1-4)GlcNAc(b1-4)GlcNAc
Method in brief: as §1

[15] = target: Neu5Ac(a2-3)Gal(b1-4)GlcNAc(b1-3)Gal(b1-4)GlcNAc(b1-3)Gal(b1-4)GlcNAc
Method in brief: as §1

[16] = target: Neu5Ac(a2-3)Gal(b1-4)GlcNAc(b1-3)Gal(b1-4)GlcNAc(b1-3)Gal(b1-4)GlcNAc(b1-2)Man(a1-3)[Neu5Ac(a2-3)Gal(b1-4)GlcNAc(b1-3)Gal(b1-4)GlcNAc(b1-3)Gal(b1-4)GlcNAc(b1-2)Man(a1-6)]GalNAc
Method in brief: as §1

[17] = target: Neu5Ac(a2-3)Gal(b1-4)GlcNAc(b1-3)Gal(b1-4)GlcNAc(b1-3)GalNAc
Method in brief: as §1

[18] = target: Neu5Ac(a2-3)Gal(b1-4)GlcNAc(b1-3)Gal(b1-4)GlcNAc(b1-3)[Neu5Ac(a2-3)Gal(b1-4)GlcNAc(b1-3)Gal(b1-4)GlcNAc(b1-6)]GalNAc
Method in brief: as §1

[19] = target: Neu5Ac(a2-3)Gal(b1-4)GlcNAc(b1-3)Gal(b1-4)GlcNAc(b1-6)[Gal(b1-3)]GalNAc
Method in brief: as §1

[20] = target: Neu5Ac(a2-3)Gal(b1-4)GlcNAc(b1-3)Gal(b1-4)[Fuc(a1-3)]GlcNAc
Method in brief: as §1

[21] = target: Neu5Ac(a2-3)Gal(b1-4)GlcNAc(b1-3)GalNAc
Method in brief: as §1

[22] = target: Neu5Ac(a2-3)Gal(b1-4)GlcNAc(b1-3)[Neu5Ac(a2-3)Gal(b1-4)GlcNAc(b1-6)]GalNAc
Method in brief: as §1

[23] = target: Neu5Ac(a2-3)Gal(b1-4)GlcNAc(b1-6)GalNAc
Method in brief: as §1

[24] = target: Neu5Ac(a2-3)Gal(b1-4)GlcNAc(b1-6)[Gal(b1-3)]GalNAc
Method in brief: as §1

[25] = target: Neu5Ac(a2-3)Gal(b1-4)GlcNAc(b1-6)[Neu5Ac(a2-3)Gal(b1-3)]GalNAc
Method in brief: as §1

[26] = target: Neu5Ac(a2-3)Gal(b1-4)GlcNAc6S
Method in brief: as §1

[27] = target: Neu5Ac(a2-3)Gal(b1-4)[Fuc(a1-3)]GlcNAc
Method in brief: as §1

[28] = target: Neu5Ac(a2-3)Gal(b1-4)[Fuc(a1-3)]GlcNAc(b1-2)Man
Method in brief: as §1

[29] = target: Neu5Ac(a2-3)Gal(b1-4)[Fuc(a1-3)]GlcNAc(b1-3)Gal
Method in brief: as §1

[30] = target: Neu5Ac(a2-3)Gal(b1-4)[Fuc(a1-3)]GlcNAc(b1-3)Gal(b1-4)GlcNAc
Method in brief: as §1

[31] = target: Neu5Ac(a2-3)Gal(b1-4)[Fuc(a1-3)]GlcNAc(b1-3)Gal(b1-4)[Fuc(a1-3)]GlcNAc(b1-3)Gal(b1-4)[Fuc(a1-3)]GlcNAc
Method in brief: as §1

[32] = target: Neu5Ac(a2-3)Gal(b1-4)[Fuc(a1-3)]GlcNAc(b1-3)GalNAc
Method in brief: as §1

[33] = target: Neu5Ac(a2-3)Gal(b1-4)[Fuc(a1-3)]GlcNAc(b1-6)[Gal(b1-3)]GalNAc
Method in brief: as §1

[34] = target: Neu5Ac(a2-3)Gal(b1-4)[Fuc(a1-3)]GlcNAc(b1-6)[Neu5Ac(a2-3)Gal(b1-3)]GalNAc
Method in brief: as §1

[35] = target: Neu5Ac(a2-3)Gal(b1-4)[Fuc(a1-3)]GlcNAc6S
Method in brief: as §1

[36] = target: Neu5Ac(a2-3)Gal6S(b1-4)GlcNAc
Method in brief: as §1

[37] = target: Neu5Ac(a2-3)Gal6S(b1-4)[Fuc(a1-3)]GlcNAc
Method in brief: as §1

B1: GS13686A-pdi-553-26-553 (Parabacteroides distasonis) (protein)
chain: NENPDKPTDDVNYNMNEPRLASTLRGGLIIEGNVEQRLKPLQIDFYSQMTVDGGGWGTKNYIQDDEWNNLVWEEYLKQIASINIVIRSLTEKDKDAYANTIAFARIWRVYVHTLAADKFGPMPFPAYEIVEANPPYKSLKDIYDEYFRELDAAINGFNDSAQPIFSDAGIDLIYKNDVSKWKRFANSLRLRLAVRLTEVDQEKCIAEANAAISSPAGLISDKADNAYMPPKADGSWGQDYNYTMFQITWSGPICMSKSVEKLVTNIGGVAWPQGVVNQTSGVAVSSVHPEKVDPRAPKIFQPGIENGDWKGLVYGPKAEEANTGIYQSKQCAELGFIIKDGYPYKSRPYDLFLSEEVHFLKAELYARGFIAGDAKSEYEAGVRASFATWGVTSEVDDYLTSTEKNEAGTSARYDDQQGAGNTALEKIITQKYIAGIPDLAQEGWNDKRRLNLPRLDVAVYRDQAVYNNNDKDILKSANFIKRMRYPTKESLINATEYEKGKSMLGGKGDIVSTPLWWDKNSNYCTSSK
- glycan array binding signal (z-score) (Neu5Ac(a2-3)Gal(b1-4)Glc): -0.314
- glycan array binding signal (z-score) [1]: -0.118
- glycan array binding signal (z-score) [2]: 0.125
- glycan array binding signal (z-score) [3]: -0.157
- glycan array binding signal (z-score) [4]: -0.089
- glycan array binding signal (z-score) [5]: -0.119
- glycan array binding signal (z-score) [6]: 1.01
- glycan array binding signal (z-score) [7]: 0.051
- glycan array binding signal (z-score) [8]: -0.263
- glycan array binding signal (z-score) [9]: -0.229
- glycan array binding signal (z-score) [10]: -0.154
- glycan array binding signal (z-score) [11]: -0.363
- glycan array binding signal (z-score) [12]: -0.389
- glycan array binding signal (z-score) [13]: -0.15
- glycan array binding signal (z-score) [14]: 0.246
- glycan array binding signal (z-score) [15]: -0.211
- glycan array binding signal (z-score) [16]: 0.409
- glycan array binding signal (z-score) [17]: 0.073
- glycan array binding signal (z-score) [18]: 0.156
- glycan array binding signal (z-score) [19]: -0.217
- glycan array binding signal (z-score) [20]: -0.244
- glycan array binding signal (z-score) [21]: -0.277
- glycan array binding signal (z-score) [22]: -0.385
- glycan array binding signal (z-score) [23]: -0.377
- glycan array binding signal (z-score) [24]: 0.313
- glycan array binding signal (z-score) [25]: -0.289
- glycan array binding signal (z-score) [26]: -0.029
- glycan array binding signal (z-score) [27]: -0.031
- glycan array binding signal (z-score) [28]: -0.407
- glycan array binding signal (z-score) [29]: -0.236
- glycan array binding signal (z-score) [30]: 0.139
- glycan array binding signal (z-score) [31]: -0.233
- glycan array binding signal (z-score) [32]: 0.207
- glycan array binding signal (z-score) [33]: 0.77
- glycan array binding signal (z-score) [34]: 0.21
- glycan array binding signal (z-score) [35]: -0.203
- glycan array binding signal (z-score) [36]: -0.294
- glycan array binding signal (z-score) [37]: -0.479
